This note sets out measurements from article PMC12136788.

The list shows a part of the results.

To fix the notation:
B1: ENSG00000137168:stop:overlap|stop_codon|ENSG00000137168|stop_codon|NA|stop_codon (ssRNA)
RNA: GGGAGUUCUACAGUCCGACGAUCCAAACUCCCAGGACCGCCCUGUGGACGACGUGAAGAUCAUUAAGGCAUACCCUUCUGGGUAGACUUGCUACCCUCUUGAGCAGCUCUUCUGAGAUGGCCCCAGUGAACCAGCUUCUAGAUCAACAGAGGAUUGAGCAUCA
B2: chr6:21598408:21598509:+|3pUTR|ENSG00000124766|msi1|total|mutant (ssRNA)
RNA: GGGAGUUCUACAGUCCGACGAUCCGUUAAGGGUUUUUGUUUUUAAACUUUUUUUUGCCAUCCAUCCUGUGCAAUAUGCCGUGCCGAAUAUUUGUCUUAAAAUUCAAGGCCACAAAAACAAUGUUUGGGGGAAAAAAAAGAAAACAACAGAGGAUUGAGCAUCA
B3: chr4:138167974:138168075:-|3pUTR|ENSG00000151012|msi1|total|mutant (ssRNA)
RNA: GGGAGUUCUACAGUCCGACGAUCCACAAAAUCUGCAUUGUCCAUGUGAGUAAAGUAAAAUAAUUCCUGUUAUUUUUUUCUGUCCGAAAUAAGUAUGGAGGAUAUGUUUUUAAAAAUUUAUGAGUUAAUUGAAAUAUCCAUAUACAACAGAGGAUUGAGCAUCA
B4: chr2:189754195:189754303:-|CDS|ENSG00000128694|unk|FALSE|unique (ssRNA)
RNA: GGGAGUUCUACAGUCCGACGAUCCCAGAGUGCUCCACCAUGAGUGGUGGGAAAGCCAUAGAACAUUUGGCCAAACAAGGAAAUAGAUUUCAUUUUGACAUCAAACCUCCCUUGCAUCAUGCUAAAAAUUGUGAUUUUUCUUUUCAACAGAGGAUUGAGCAUCA
B5: chr12:100625254:100625355:+|3pUTR|ENSG00000139354|unk|FALSE|unique (ssRNA)
RNA: GGGAGUUCUACAGUCCGACGAUCAUAUGUAUUAAAUAUGGAGUUCAUAUACCUGCUAAUAUCAACGGUGGUGCUCUUACUAUUAGUUAAUUGCAUUUUGGUUAAAAAAAAAAAAGCAACAGUUUGGCACUUGUCCUACAAAAGCAACAGAGGAUUGAGCAUCA
B6: chr11:134247321:134247422:+|3pUTR|ENSG00000151502|unk|total|mutant (ssRNA)
RNA: GGGAGUUCUACAGUCCGACGAUCCCUUUUCAGAGCAUGAGGUCAGGCUCUGUAUCCCUCCUUUUCCCCGCUGAUAUUCUAACCCGAAGCAUUUGUCAAUUCCUUUGCCUCCCAACUGACAACACACGUUCAUUUUCCAACCUUCAACAGAGGAUUGAGCAUCA
B7: chr21:43695798:43695899:+|3pUTR|ENSG00000160208|msi1|FALSE|unique (ssRNA)
RNA: GGGAGUUCUACAGUCCGACGAUCACAAUAUUUUGUAAAAUGAUGCUUCCCCCUUCUCCAUGGUCUAGUCAAUUUUGUACAAUUAGGUAUCUGACUUUACAAGUUUGUUAUCCUUUCUAAUUUUUACUGAACUGAAAGCACAAACAACAGAGGAUUGAGCAUCA
B8: chr10:110887682:110887783:+|CDS|ENSG00000150593|msi1|total|mutant (ssRNA)
RNA: GGGAGUUCUACAGUCCGACGAUCGUUAAGAGAUUUAAAUCUUGGUGAAAUGAAAAGUGGAGUACCAGUGUUGGCAGUAUCCUCCGCAUUGGAGGGGAAGGCCCGUCACCGAGAGAUGACAUCUAAGCUUCUUUCUGACCUUUGCAACAGAGGAUUGAGCAUCA
B9: chr5:95604386:95604487:+|3pUTR|ENSG00000164291|msi1|FALSE|unique (ssRNA)
RNA: GGGAGUUCUACAGUCCGACGAUCCCUGCCAUCCAGUUCCCCCUCCAAGAAGCAAGUACCGAAACCACCUGCUUACGCAUUUUUAGAGAUUGGCCACAAAUUUAUAAACAAAUGUAUAUAUUCCUUUCCCCCUACACAAACGGUCAACAGAGGAUUGAGCAUCA
B10: chr6:21593967:21594078:+|5pUTR|ENSG00000124766|unk|total|mutant (ssRNA)
RNA: GGGAGUUCUACAGUCCGACGAUCUCCGUGCCGAUUCCGCCCACAGAGAGUCCUGGAGCCACAGUCUUUUUUGCUUUGCAUUGCCGGAGAGGGACUAAGUGCCCGAGACUAUGUCGCUUUCCUGAGCUACCGAGAGCGCUCGUGCAACAGAGGAUUGAGCAUCA
B11: chr13:110149936:110150037:-|3pUTR|ENSG00000187498|msi1|FALSE|unique (ssRNA)
RNA: GGGAGUUCUACAGUCCGACGAUCUUCUUGUAUUAUAAUUAAUUUUCUACCCCCAGAGAUAAAUGUUUGUUUAUAUCACUGUCUAGCUGUUUCAAAAUUUAGGUCCCUUGGUCUGUACAAAUAAUAGCAAUGUAAAAAUGGUUUCAACAGAGGAUUGAGCAUCA
B12: chr15:73714018:73714119:+|3pUTR|ENSG00000103855|msi1|FALSE|unique (ssRNA)
RNA: GGGAGUUCUACAGUCCGACGAUCCCCACCCAUAAUUCUUACCCAGAGCAUGGGGUUGGGGCGGAAACCUGGAGAGAGGGACAUAGCCCCUCGCCACGGCUAGAGAAUCUGGUGGUGUCCAAAAUGUCUGUCCAGGUGUGGGCACAACAGAGGAUUGAGCAUCA
B13: chr1:208022241:208027242:-|three_prime_utr|ENSG00000076356|control|control|control (ssRNA)
RNA: GGGAGUUCUACAGUCCGACGAUCGAGACCCCAUCCUGGGGAGAGGGGAGGACUCCUCUCCCUACGCCAGCCAAGUUUCGUCAUAGCCAGUUCCAGCUGGGAGAGACAGUGGGCGUCGUCCAUCCUCAGUGAGAACACCAGAGACAACAGAGGAUUGAGCAUCA
B14: ENSG00000198589:be:win_7701|CDS|ENSG00000198589|bound_else_gene|NA|bound_elsewhere_windowed (ssRNA)
RNA: GGGAGUUCUACAGUCCGACGAUCUACAGGAAUGCACAGGAGGCAAAUCACUGACCUUUUAGACCAAAGUAUUCAAGUGCAUUCCCAGUGCUUUGUCAUCACUUCAGACAACCGCUAUAUUCUCGUCUGUGGCUUCUGGGAUAACAACAGAGGAUUGAGCAUCA
B15: chr12:12643182:12643283:+|3pUTR|ENSG00000111269|unk|FALSE|unique (ssRNA)
RNA: GGGAGUUCUACAGUCCGACGAUCCUGGAGUUGUGCACAGCACCGCAGCUAGUGGGCCUGGCUGGGGGUGCAGAAGGGCAGGGUAGUUCUUUCCAUUUCCCCUUGCAGCUACACUUACUUUCUCCCUGACUACCAAAUGGAGUGCAACAGAGGAUUGAGCAUCA
B16: chr19:43785873:43786072:-|three_prime_utr|ENSG00000159871|control|control|control (ssRNA)
RNA: GGGAGUUCUACAGUCCGACGAUCGAAAUGAAGAAAAAAGGAGAAAGGAGAAAAGCAUGCACUUGGAGACUAAGACCAGGAGAUAGAAACAGAGAAGCAAGACAAGGCGCAGUGGCUCACACUUGUAAUUCCAGCACCUUAGGACAACAGAGGAUUGAGCAUCA
B17: chr1:203167810:203168091:-|three_prime_utr|ENSG00000133055|control|control|control (ssRNA)
RNA: GGGAGUUCUACAGUCCGACGAUCGGGCCAGGUCCACCAGGCCUACAGUCAAACUCCAGAGAUGCCCAAGACCCCCGCUUCCAUAGCGACGGCUGAUGGAACCGCCCCUGGUACCUGCUGGCCUCCCUUCCCCAGAGGCUGGUGCAACAGAGGAUUGAGCAUCA
B18: ENSG00000170743:stop:overlap|stop_codon|ENSG00000170743|stop_codon|NA|stop_codon (ssRNA)
RNA: GGGAGUUCUACAGUCCGACGAUCAUUUCCCCAGGGAGUGCAUCCUUUGGAAGGAUAUCGAAUAUGUCACCAAUAUUCUUAGCUAGCCCCUAAGAGACAGCAGGUGUUAUCUGUCCUCCGUACCACAUUUUCUUUAGAGCUUUUCAACAGAGGAUUGAGCAUCA
B19: chr7:107202531:107202632:-|3pUTR|ENSG00000164597|msi1|total|mutant (ssRNA)
RNA: GGGAGUUCUACAGUCCGACGAUCUAUUCUGAGAACUCAUAAAUAAAAUUCAGCCAAGAUUAAUCAAUCAAUCAAUCAAUCAGCCGACGUCAGAGAUAAGCAACUUUUUUUUCCAUUUAUUUGAAAUAAUAUACAAGAAUACCGCAACAGAGGAUUGAGCAUCA
B20: chr22:41117408:41117517:+|CDS|ENSG00000100393|unk|total|mutant (ssRNA)
RNA: GGGAGUUCUACAGUCCGACGAUCCCAGGUCAAGUCAUGGCCAGCCAGGCCCAACAGAGCAGUCCUGGAUCCGGUUUGAUAAACCGCAUGGUCAAAAGCCCAAUGACACAGGCAGGCUUGACUUCUCCCAACAUGGGGAUGGGCCAACAGAGGAUUGAGCAUCA
B21: chr1:108699644:108699745:+|CDS|ENSG00000134186|unk|total|mutant (ssRNA)
RNA: GGGAGUUCUACAGUCCGACGAUCGAUUCCAAGAAAGAGAAAAAACACAGCCGAAGCAGAAGCAGAGAAAGGAAACACAGAAGCCGGAGUCGAAGCCGAAAUGCAGGGAAACGAAGCCGAAGCCGAAGCAAAGAGAAAUCAAGUCAACAGAGGAUUGAGCAUCA
B22: chr2:150470103:150470218:-|CDS|ENSG00000115963|unk|total|mutant (ssRNA)
RNA: GGGAGUUCUACAGUCCGACGAUCAUGGCCAAACAGAUUGGAGCAGCUACUUAUAUCGAAUGCUCAGCUUUACAGUCGGAAAACCGCGUCAGAGACAUUUUUCACGUUGCCACCUUGGCAUGUGUAAAUAAGACAAAUAAAAACCAACAGAGGAUUGAGCAUCA

The assay concerns the target MSI1 full-length (mouse, UniProt Q61474 1-362). The experiment in a line: nsRBNS (natural sequence RNA bind-n-seq); RBNS binding buffer (assumed for nsRBNS): 25 mM Tris pH 7.5, 150 mM KCl, 3 mM MgCl2, 0.01% Triton X-100, 500 ug/ml BSA, 20 U/ml SUPERase-In, 4 C; UNK is unkempt and MSI1 is Musashi-1; names of the RNAs are library labels; protein concentration not given here; high values mean tight binding.
Chain of UniProt Q61474 (Q61474 whole entry): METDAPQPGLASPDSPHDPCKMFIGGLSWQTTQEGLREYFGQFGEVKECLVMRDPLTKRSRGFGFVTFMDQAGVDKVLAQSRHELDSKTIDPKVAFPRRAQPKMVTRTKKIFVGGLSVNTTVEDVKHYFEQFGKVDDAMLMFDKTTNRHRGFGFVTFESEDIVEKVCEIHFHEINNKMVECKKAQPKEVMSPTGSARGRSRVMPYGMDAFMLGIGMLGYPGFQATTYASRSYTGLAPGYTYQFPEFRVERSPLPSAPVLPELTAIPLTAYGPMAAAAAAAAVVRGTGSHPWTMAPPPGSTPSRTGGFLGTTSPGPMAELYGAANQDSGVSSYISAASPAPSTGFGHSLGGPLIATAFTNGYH
Consider B1, for which the binding signal worked out at 0.384 enrichment R. In the case of B2 it was 0.293 enrichment R; in that of B3, 0.651 enrichment R; in that of B4, 0.306 enrichment R. Next, B5: 4.95 enrichment R; B6: 0.592 enrichment R.

B7 registered a binding signal of 1.05 enrichment R. Take B8: the binding signal amounted to 0.349 enrichment R. In the case of B9 it was 1.53 enrichment R; in that of B10, 0.447 enrichment R; in that of B11, 30.3 enrichment R.

In turn, B12 gave a binding signal of 0.347 enrichment R. The molecule B13 displayed a binding signal of 0.394 enrichment R. The molecule B14 gave a binding signal of 0.497 enrichment R. In the case of B15 it was 0.688 enrichment R; in that of B16, 1.22 enrichment R; in that of B17, 0.439 enrichment R.

B18 showed a binding signal of 0.336 enrichment R. Next, B19: 2.15 enrichment R; B20: 0.388 enrichment R; B21: 0.486 enrichment R. The molecule B22 came in with a binding signal of 0.309 enrichment R.
